{
  "source": "the supplement of paper PMC11417369",
  "note": "The list shows a part of the results.",
  "data": [
    {"tested_on": "PfHDP1 homeodomain (GST-tagged)", "assay": "gcPBM binding intensity (ln(normalized median fluorescence intensity)); higher = stronger DNA binding", "how_it_was_run": "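Binding intensity is the highest Masliner-normalised natural-log median intensity over replicate spots in either probe orientation. To obtain it, GST-tagged P. falciparum DNA-binding domains made in E. coli were incubated for 1 h on an Agilent 4 × 180k array of primer-extended double-stranded 36-bp intergenic genomic probes plus negative controls. Detection used Alexa488 anti-GST antibody with scanning at 488 nm.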", "values": [
      {"sequence": "TAATGTATTATTTAATGTACTTAAAAAATAAATAAA [XGTACX_site3296]", "gcPBM binding intensity (ln)": 6.1},
      {"sequence": "AATGAACAGACGAGCACACACACACCCATATATATA [CACACA_site1018]", "gcPBM binding intensity (ln)": 6.99},
      {"sequence": "ACCTTTAATAAATACACACACATAAAAAAAATATAT [CACACA_site5086]", "gcPBM binding intensity (ln)": 8.21},
      {"sequence": "CACAAATATATACATACACACATATATACGCATATA [CACACA_site395]", "gcPBM binding intensity (ln)": 6.8},
      {"sequence": "GGGGAGCTATCTCCTGCACACACAATTTTTTTTTTT [CACACA_site8703]", "gcPBM binding intensity (ln)": 8.18},
      {"sequence": "TATTATATGAATAATTGTACGAAATTTAAAAGACAA [XGTACX_site7558]", "gcPBM binding intensity (ln)": 6.74},
      {"sequence": "AATGAAAAGAAATAATAAATAAATGATGACCAGCTG [GTGCAC_negctrl_site398]", "gcPBM binding intensity (ln)": 6.54},
      {"sequence": "TGATTATCCTTCAGGAGTACATATAATATAATATAT [XGTACX_site1479]", "gcPBM binding intensity (ln)": 6.51},
      {"sequence": "AAAAACAAAATTTGGAGTACAGTTATAATATTATTA [XGTACX_site5245]", "gcPBM binding intensity (ln)": 6.74},
      {"sequence": "TTATAAAGAAAAAATTGCTTTAAAAGAAAGATTACA [CACACA_negctrl_site960]", "gcPBM binding intensity (ln)": 5.87},
      {"sequence": "ATATATATATGAATCACACACAAAAAATATAGAGAT [CACACA_site3913]", "gcPBM binding intensity (ln)": 8.27},
      {"sequence": "GCACCAAAAAAAAGACGTACAGTTATATTAAAATAG [XGTACX_site8926]", "gcPBM binding intensity (ln)": 6.7},
      {"sequence": "AAATGAACAAGTGGCACACACACATTCTAACTAATT [CACACA_site3203]", "gcPBM binding intensity (ln)": 6.45},
      {"sequence": "AACCAAATTTCACCATGTACATATTGATAAATATAT [XGTACX_site1374]", "gcPBM binding intensity (ln)": 6.62},
      {"sequence": "ATATGATTTGGATGTAGTACATATTTTTTTATGTTT [XGTACX_site1929]", "gcPBM binding intensity (ln)": 6.49},
      {"sequence": "TAAAATAATATATGGTGTACACAAAAGTATAAATAA [XGTACX_site4991]", "gcPBM binding intensity (ln)": 7.26},
      {"sequence": "AAAAAAATAATTAACACACACATGTATATCTATATA [CACACA_site3139]", "gcPBM binding intensity (ln)": 6.3},
      {"sequence": "ATATAAAAAAAATTTAGTACATATATATATATATAT [XGTACX_site8635]", "gcPBM binding intensity (ln)": 9.33},
      {"sequence": "TATATATATATATTATGTACTCATTTATTATCTTTT [XGTACX_site8051]", "gcPBM binding intensity (ln)": 8.95},
      {"sequence": "CGGGGGTAGTTTTATGCACACGTTTATTAATGCTTC [CACACA_site5717]", "gcPBM binding intensity (ln)": 10.5},
      {"sequence": "ACCAATAATATACATACACACATAAATGTTTATATA [CACACA_site4328]", "gcPBM binding intensity (ln)": 6.77},
      {"sequence": "ACATGAATATATACACGTACATATATACATATATAT [XGTACX_site5872]", "gcPBM binding intensity (ln)": 6.57},
      {"sequence": "TGAAAAACTATCAGAGTGCATATATAGCTCGATACA", "gcPBM binding intensity (ln)": 7.91},
      {"sequence": "TTTTATGTTTATGTGGTGCATGTTTTGAAGAAAATA [GTGCAC_site9616]", "gcPBM binding intensity (ln)": 8.94},
      {"sequence": "TATAAACCGACGAAAACACACATATGTAAATATATA [CACACA_site491]", "gcPBM binding intensity (ln)": 6.87},
      {"sequence": "AAACCTATGTATATTATACACACTCCAAACTATTAT [CACACA_site8536]", "gcPBM binding intensity (ln)": 6.86},
      {"sequence": "ATTACCATATTTTGTACACACATCTTTATCTCAATA [CACACA_site3217]", "gcPBM binding intensity (ln)": 7.45},
      {"sequence": "TAAAAATTAAAGTGTACACATATATATATATATATA [CACACA_site4781]", "gcPBM binding intensity (ln)": 9.37},
      {"sequence": "AAAAAAAAAAAGCACACACACATATGCGTATATATA [CACACA_site954]", "gcPBM binding intensity (ln)": 6.55},
      {"sequence": "TTATTAAAGGAAAAATGTACATATAAATGAATATGT [XGTACX_site23]", "gcPBM binding intensity (ln)": 6.19},
      {"sequence": "GAAAAAAAACACATTGTGCACTTTTCCTTAAGTATA [GTGCAC_site9475]", "gcPBM binding intensity (ln)": 8.51},
      {"sequence": "ATTAAATATATTTTGCGTACACAAAAAAATACGTTC [XGTACX_site3862]", "gcPBM binding intensity (ln)": 6.77},
      {"sequence": "ATAATATTTTATGGTTGTACTTTTAGTTCTTTTTTT [XGTACX_site5756]", "gcPBM binding intensity (ln)": 6.41},
      {"sequence": "TACGTGAAGTTATATACACACATAAATATGTCTGTA [CACACA_site7463]", "gcPBM binding intensity (ln)": 6.59},
      {"sequence": "TTAAAGTATAACTGTACATGCGAGTAAAAGAATGAC [TGCATGCA_site899]", "gcPBM binding intensity (ln)": 7.57},
      {"sequence": "GGAGAAAAAAAAAAAAAACACACGGTACATTCAAAG [CACACA_site1503]", "gcPBM binding intensity (ln)": 6.32},
      {"sequence": "TTTTTTTCGTATATTACACACTATATATAGAAATTA [CACACA_site298]", "gcPBM binding intensity (ln)": 6.61},
      {"sequence": "TATGTTTTTCGGTATGCATGCATATGCTTAATAATA [TGCATGCA_site184]", "gcPBM binding intensity (ln)": 7.03},
      {"sequence": "AATATTAAACAAATGAAAAAAAAATATATATTATAT [CACACA_negctrl_site742]", "gcPBM binding intensity (ln)": 6.55},
      {"sequence": "TTTAATTAAAATATATGTACATATATATATATATAT [XGTACX_site4517]", "gcPBM binding intensity (ln)": 9.42},
      {"sequence": "AATATATATATGATTATATATATATATATATATATA [GTGCAC_negctrl_site290]", "gcPBM binding intensity (ln)": 9.41},
      {"sequence": "AAAATAACACAAATGGGTACATATTATATTAAATAA [XGTACX_site7027]", "gcPBM binding intensity (ln)": 6.3},
      {"sequence": "AAATTATCCAAAAATTGTACTTAAAACAACATAAAA [XGTACX_site6238]", "gcPBM binding intensity (ln)": 6.18},
      {"sequence": "AAAGAAGGTAAACACACACACACACCGACAAAAAAA [CACACA_site9255]", "gcPBM binding intensity (ln)": 6.78},
      {"sequence": "ACCATTTGTAGGTAAACACACATTATTCTTAATATC [CACACA_site5453]", "gcPBM binding intensity (ln)": 6.37},
      {"sequence": "TTTCTCTTATTCCAATCTATAATAAGTATCAATATT [CACACA_negctrl_site179]", "gcPBM binding intensity (ln)": 6.55},
      {"sequence": "ATATATTCATTTTTATGTACGTAAATTGTAAATTGG [XGTACX_site8242]", "gcPBM binding intensity (ln)": 6.8},
      {"sequence": "AAAATAATAATAAAAAGTACATGTGTATATAATAAA [XGTACX_site754]", "gcPBM binding intensity (ln)": 7.25},
      {"sequence": "TGCATTATTTTATGAAGTACATATGAACAAAAAATT [XGTACX_site2185]", "gcPBM binding intensity (ln)": 6.5},
      {"sequence": "AACACCCAAAAACACACACACATACATACATACATA [CACACA_site4411]", "gcPBM binding intensity (ln)": 6.81},
      {"sequence": "AACATTAATTTCCTATGTACTTAATATATTGTTTTT [XGTACX_site4440]", "gcPBM binding intensity (ln)": 6.56},
      {"sequence": "ATTTATATATATGTATGTACGTATGTGTGTATATGT [XGTACX_site7587]", "gcPBM binding intensity (ln)": 7.82},
      {"sequence": "CTTTCCCTATATTGCTGTACATGTATTCAAAAAACA [XGTACX_site353]", "gcPBM binding intensity (ln)": 7.01},
      {"sequence": "CGCGAACATACATACACACACATATATATATCTGTA [CACACA_site4277]", "gcPBM binding intensity (ln)": 6.98},
      {"sequence": "TACACAAAAATAAACACACACACATATATATATATA [CACACA_site1000]", "gcPBM binding intensity (ln)": 9.26},
      {"sequence": "TATATATTCCTCCATAGTACAATAATAAAGATAAAA [XGTACX_site5785]", "gcPBM binding intensity (ln)": 6.47},
      {"sequence": "ACCAATTTGACAAACTGTACAAAAAAAATATTAAAA [XGTACX_site1186]", "gcPBM binding intensity (ln)": 6.24}
    ]}
  ]
}
